{"source": "PubChem BioAssay AID1508642", "about": "(National Center for Advancing Translational Sciences (NCATS), 2021)", "note": "In all, about 43,000 compounds went through this assay and about 200 (0.47%) were called active. Inconclusive results (about 12%) are left out. The call rests on the fitted dose curve; in most records, active means well fitted cell-killing curve with a large enough effect; inconclusive means small, poorly fitted or top-dose-only effect, or effect the other way; inactive means flat fitted curve, though single readings scatter. The list shows a part of the results. On the % scale 0 is the no-effect control and ±100 the full control effect."}
{"assay": "Cell viability qHTS assay in S16 Pmp22-F2sN cells; further: nearly all actives have a fitted effect of over 65% in size", "conditions": "S16 Pmp22-F2sN Schwann cells (luciferase reporters placed in the Pmp22 gene) viability, CellTiter-Glo, 24 h; series mostly up to 57.5 µM; activity change, negative = cytotoxicity: at the top concentration", "summary_of_the_method": "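Luminescence from CellTiter-Glo, read by CCD camera after a 15 min room-temperature incubation, served as the viability signal. Reporter Schwann cells (S16 Pmp22-F2sN) had been treated with pin-transferred compounds for 24 h at 37C.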"}
{"smiles": "COCc1cc(C)nc2c1C(=O)NC(c1ccc(C)cc1)N2Cc1ccccc1", "note": "(stereo not drawn)", "activity change, negative = cytotoxicity": "inactive: 6.91%"}
{"smiles": "CCCN1C(=O)c2[nH]nc(-c3ccccc3)c2C1c1cccc(O)c1", "note": "(stereo not drawn)", "activity change, negative = cytotoxicity": "inactive: -12%"}
{"smiles": "CCOc1ccc(-c2nnc(SCC(=O)NCc3ccccc3Cl)o2)cc1", "activity change, negative = cytotoxicity": "inactive: 3.74%"}
{"smiles": "CCN(CC)CCNC(=O)C(=O)NCC(c1ccc2c(c1)OCO2)N1CCOCC1", "note": "(stereo not drawn)", "activity change, negative = cytotoxicity": "inactive: -0.494%"}
{"smiles": "CCOc1ccc(S(=O)(=O)N2CCN(c3cccc(C(F)(F)F)c3)CC2)cc1OCC", "activity change, negative = cytotoxicity": "inactive: -1.36%"}
{"smiles": "COc1ccccc1NC(=O)CSC1=Nc2ccccc2C2=NC(Cc3ccccc3)C(=O)N12", "note": "(stereo not drawn)", "activity change, negative = cytotoxicity": "inactive: -5.29%"}
{"smiles": "COc1ccc2c(c1)CCc1sc(NC(=O)c3cccc(Br)c3)nc1-2", "activity change, negative = cytotoxicity": "inactive: 3.62%"}
{"smiles": "Cc1ccc(NC(=O)c2oc3ccccc3c2NC(=O)Cc2ccccc2)cc1", "activity change, negative = cytotoxicity": "inactive: 16.4%"}
{"smiles": "CCCOc1cccc(C(=O)N(Cc2sccc2C)C2CCS(=O)(=O)C2)c1", "note": "(stereo not drawn)", "activity change, negative = cytotoxicity": "inactive: -1.05%"}
{"smiles": "COc1ccc(CNC(=O)c2cnc(N(C)C)nc2)cc1", "activity change, negative = cytotoxicity": "inactive: 2.08%"}
{"smiles": "CC(C)OCCCNC(=O)CN1C(=O)c2cccnc2Sc2ccccc21", "activity change, negative = cytotoxicity": "inactive: 1.57%"}
{"smiles": "Cc1cc(Cl)ccc1OCC(=O)N(Cc1sccc1C)C1CCS(=O)(=O)C1", "note": "(stereo not drawn)", "activity change, negative = cytotoxicity": "inactive: 4.51%"}
{"smiles": "CCC(=O)Nc1ccc2nc(SCCOc3ccc(C)cc3OC)sc2c1", "activity change, negative = cytotoxicity": "inactive: 18.1%"}
{"smiles": "CC(=O)c1ccc(NC(=O)CSc2nc(-c3ccc(C)cc3)nc3c2c(=O)n(C)c(=O)n3C)cc1", "activity change, negative = cytotoxicity": "inactive: 0.704%"}
{"smiles": "CCn1c(=O)cc(OCC(=O)N2CCN(c3ccc(C)cc3)C(C)C2)c2ccccc21", "note": "(stereo not drawn)", "activity change, negative = cytotoxicity": "inactive: -3.37%"}
{"smiles": "CCN(CC)CCNC(=O)CN1N=C(c2ccc(OC)cc2)CCC1=O", "activity change, negative = cytotoxicity": "inactive: 9.76%"}
{"smiles": "Cc1cccn2cc(-c3cccc(NC(=O)C(C)C)c3)nc12", "activity change, negative = cytotoxicity": "inactive: -6.95%"}
{"smiles": "O=C(Cn1cc(SCc2c(F)cccc2Cl)c2ccccc21)N1CCCCC1", "activity change, negative = cytotoxicity": "inactive: -0.252%"}
{"smiles": "Cn1c(=O)n(Cc2ccccc2)c(=O)c2c1nc1n2CCN1c1ccccc1", "activity change, negative = cytotoxicity": "inactive: 7.32%"}
{"smiles": "COc1cccc2c(C)cc3nnc(SCC(=O)Nc4ccc(C)cc4)n3c12", "activity change, negative = cytotoxicity": "inactive: 1.52%"}
{"smiles": "COCCNC(=O)CN1C(=O)c2cccnc2Sc2ccccc21", "activity change, negative = cytotoxicity": "inactive: 2.1%"}
{"smiles": "O=C(Cn1ncc2c1-c1ccccc1OC2)N1CCN(c2ccccc2)CC1", "activity change, negative = cytotoxicity": "inactive: 18.3%"}
{"smiles": "O=C(c1ccc2c(c1)OCO2)c1cn(Cc2ccc(Cl)cc2)c2ccc(F)cc2c1=O", "activity change, negative = cytotoxicity": "inactive: -11.1%"}
{"smiles": "Cc1ccc(-c2cn3cccnc3n2)cc1NC(=O)Nc1ccc(F)cc1", "activity change, negative = cytotoxicity": "inactive: 2.46%"}
{"smiles": "CC(C)(C)OC(=O)N1CCC(c2c(C(=O)N3CCN(c4ccccn4)CC3)cnn2-c2ccc(F)cc2)CC1", "activity change, negative = cytotoxicity": "inactive: 0.114%"}
{"smiles": "COc1ccc2c(c1)c(=O)c(S(=O)(=O)c1ccc(F)cc1)cn2Cc1ccccc1Cl", "activity change, negative = cytotoxicity": "inactive: -16.2%"}
{"smiles": "CCCCOc1ccc(C(=O)N2CCCCC2CCN2CCOCC2)cc1", "note": "(stereo not drawn)", "activity change, negative = cytotoxicity": "inactive: 22%"}
{"smiles": "CC1CCC(NC(=O)c2ccc(CS(=O)(=O)c3ccc(Cl)cc3)o2)CC1", "note": "(stereo not drawn)", "activity change, negative = cytotoxicity": "inactive: -2.17%"}
{"smiles": "CCCCNC(=O)C(CC)Sc1nc2ccccc2c(=O)n1Cc1ccco1", "note": "(stereo not drawn)", "activity change, negative = cytotoxicity": "inactive: -27.4%"}
{"smiles": "COCCCNC(=O)Cn1c(=O)n(-c2ccc(C)c(C)c2)c(=O)c2c3c(sc21)CCCCC3", "activity change, negative = cytotoxicity": "inactive: 5.41%"}
{"smiles": "O=C(COc1ccc(F)cc1)Nc1nnc(S(=O)(=O)N2CCCC2)s1", "activity change, negative = cytotoxicity": "inactive: 0.167%"}
{"smiles": "COc1ccc(NC(=O)c2nnn(Cc3nc(-c4cc(OC)c(OC)c(OC)c4)oc3C)c2C)cc1Cl", "activity change, negative = cytotoxicity": "inactive: 8.66%"}
{"smiles": "COc1ccccc1CNC(=O)c1ccc2[nH]c(C)c(C)c2c1", "activity change, negative = cytotoxicity": "inactive: 4.54%"}
{"smiles": "COc1ccc(OC)c(NS(=O)(=O)c2ccc(-n3cccn3)cc2)c1", "activity change, negative = cytotoxicity": "inactive: -0.766%"}
{"smiles": "Cc1cccc(N(C)S(=O)(=O)c2nnc(NC(=O)c3cccs3)s2)c1", "activity change, negative = cytotoxicity": "inactive: 0.862%"}
{"smiles": "Cc1ccc(C(=O)c2sc(Nc3ccccc3)c(S(=O)(=O)c3ccccc3)c2N)c(C)c1", "activity change, negative = cytotoxicity": "inactive: -3.42%"}
{"smiles": "CCOC(=O)c1cccc(NC(=O)Cn2c(=O)c3cccn3c3ccccc32)c1", "activity change, negative = cytotoxicity": "inactive: 8.36%"}
{"smiles": "Cc1cc(C)n2nc(CNC(=O)c3c(F)cccc3F)nc2n1", "activity change, negative = cytotoxicity": "inactive: -0.196%"}
{"smiles": "COCCNC(=O)c1sc2ncccc2c1-n1c(C)ccc1C", "activity change, negative = cytotoxicity": "inactive: 5.04%"}
{"smiles": "CCC(C)n1c(=O)c2sccc2n2c(CCCC(=O)NCc3ccccc3Cl)nnc12", "note": "(stereo not drawn)", "activity change, negative = cytotoxicity": "inactive: 9.54%"}
{"smiles": "COCCn1c(CNC(=O)c2cccc(C)c2)nc2cccnc21", "activity change, negative = cytotoxicity": "inactive: 11.1%"}
{"smiles": "COCCNC(=O)C1CCN(Cc2cc3ccccc3n2Cc2ccc(C)cc2)CC1", "activity change, negative = cytotoxicity": "inactive: -5.22%"}
{"smiles": "COc1ccc(NC(=O)c2ccc(NC(=O)N3CCSc4ncccc43)cc2)cc1", "activity change, negative = cytotoxicity": "inactive: -26.9%"}
{"smiles": "COc1ccccc1NC(=O)C1=C(C)Nc2nc(SCc3ccccc3)nn2C1c1cccc(O)c1", "note": "(stereo not drawn)", "activity change, negative = cytotoxicity": "inactive: -3.29%"}
{"smiles": "CCCCn1c(SCc2ccccc2C)nc2ccsc2c1=O", "activity change, negative = cytotoxicity": "inactive: -8.39%"}
{"smiles": "COc1ccc(CNC(=O)C(=O)NCC(c2ccco2)S(=O)(=O)c2cccs2)cc1", "note": "(stereo not drawn)", "activity change, negative = cytotoxicity": "inactive: -18.7%"}
{"smiles": "Cc1ccc(S(=O)(=O)c2nc(-c3cccs3)oc2SCc2ccc(F)cc2)cc1", "activity change, negative = cytotoxicity": "inactive: -7.28%"}
{"smiles": "CC(C)c1ccccc1NC(=O)C(Cc1c[nH]c2ccccc12)NC(=O)OC(C)(C)C", "note": "(stereo not drawn)", "activity change, negative = cytotoxicity": "inactive: -13.5%"}
